Measured values: patent US11178870B2 (priority 2017, dated 2021)

Experiments:
Magnaporthe grisea = type: in vivo; conditions: class of control value, Table 7
Phytophthora infestans = type: in vivo; conditions: class of control value, Table 7
[1] = test system: Colletotrichum orbiculare; conditions: 250 ppm spray, 2.5 ml/pot; investigated 6 to 10 days after inoculation

| SMILES | Test A control value (blast on rice) (Magnaporthe grisea) | Test F control value (late blight on tomato) (Phytophthora infestans) | Test H control value (anthracnose on cucumber) [1] |
| --- | --- | --- | --- |
| Cc1ccsc1-c1ccc(=O)n(CC(F)F)c1-c1c(F)cccc1F [Compound 385] | H (H shows the control value more than 50%) | H (H shows the control value more than 50%) | H (H shows the control value more than 50%) |
| CCn1c(-c2c(F)cccc2F)c(-c2sccc2Cl)ccc1=O [Compound 393] | H (H shows the control value more than 50%) | H (H shows the control value more than 50%) | H (H shows the control value more than 50%) |
| O=c1c(Br)cc(-c2ccsc2Cl)c(-c2c(F)cccc2F)n1CC(F)F [Compound 402] | H (H shows the control value more than 50%) | L (L shows the control value of 50% or less) | L (L shows the control value of 50% or less) |
| CCn1c(-c2ccc(C#N)cc2F)c(-n2cc(F)cn2)cc(Cl)c1=O [Compound 508] | L (L shows the control value of 50% or less) | L (L shows the control value of 50% or less) | H (H shows the control value more than 50%) |
| CCn1c(-c2ccc(F)cc2Cl)c(-c2ccsc2Cl)cc(Br)c1=O [Compound 459] | H (H shows the control value more than 50%) | L (L shows the control value of 50% or less) | H (H shows the control value more than 50%) |
| O=c1ccc(-c2cc(Br)sc2Cl)c(-c2c(F)cccc2F)n1CC(F)F [Compound 401] | L (L shows the control value of 50% or less) | L (L shows the control value of 50% or less) | L (L shows the control value of 50% or less) |
